Laboratory results taken from article PMC4336329 (PLoS ONE, 2015).
Out of some 310,000 compounds screened, about 2,200 (0.71%) showed an effect of 50% or more. The effect is printed as a negative number. The list shows a part of the results.

What follows are compounds tested against human ether-à-go-go-related gene (hERG) potassium channel (human, UniProt Q12809) (assay: primary screen, population patch clamp on CHO cells stably expressing hERG).
Sequence of human ether-à-go-go-related gene (hERG) potassium channel (Q12809 whole entry, looked up): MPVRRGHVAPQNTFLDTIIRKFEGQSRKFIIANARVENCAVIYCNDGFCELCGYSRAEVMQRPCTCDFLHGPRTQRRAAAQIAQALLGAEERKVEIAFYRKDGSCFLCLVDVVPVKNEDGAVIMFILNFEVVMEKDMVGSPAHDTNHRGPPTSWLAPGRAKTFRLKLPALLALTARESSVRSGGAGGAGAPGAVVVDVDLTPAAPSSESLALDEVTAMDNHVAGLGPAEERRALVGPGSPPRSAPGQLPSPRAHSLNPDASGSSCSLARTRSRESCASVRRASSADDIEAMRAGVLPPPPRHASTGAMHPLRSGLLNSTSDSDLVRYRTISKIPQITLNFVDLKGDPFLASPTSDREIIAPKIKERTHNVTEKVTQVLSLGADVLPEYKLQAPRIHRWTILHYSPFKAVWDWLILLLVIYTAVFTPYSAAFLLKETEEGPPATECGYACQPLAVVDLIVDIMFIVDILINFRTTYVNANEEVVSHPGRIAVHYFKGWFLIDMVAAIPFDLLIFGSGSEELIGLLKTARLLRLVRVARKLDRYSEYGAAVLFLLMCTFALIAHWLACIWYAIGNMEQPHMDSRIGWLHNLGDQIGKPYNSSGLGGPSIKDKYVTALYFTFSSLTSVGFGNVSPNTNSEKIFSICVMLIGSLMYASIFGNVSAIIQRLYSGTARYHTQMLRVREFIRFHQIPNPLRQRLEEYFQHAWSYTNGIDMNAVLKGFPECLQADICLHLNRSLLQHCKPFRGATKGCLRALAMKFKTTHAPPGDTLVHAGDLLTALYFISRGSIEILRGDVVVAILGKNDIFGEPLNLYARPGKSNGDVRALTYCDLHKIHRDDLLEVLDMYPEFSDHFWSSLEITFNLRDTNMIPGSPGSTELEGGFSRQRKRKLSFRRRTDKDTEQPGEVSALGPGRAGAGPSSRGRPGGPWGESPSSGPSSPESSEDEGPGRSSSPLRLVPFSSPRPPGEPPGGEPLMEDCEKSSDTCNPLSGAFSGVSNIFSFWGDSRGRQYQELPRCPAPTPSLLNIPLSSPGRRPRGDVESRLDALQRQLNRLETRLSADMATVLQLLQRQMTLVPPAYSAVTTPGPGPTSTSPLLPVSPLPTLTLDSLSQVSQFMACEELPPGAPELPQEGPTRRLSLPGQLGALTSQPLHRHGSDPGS

Row | Compound | hERG current change (%, negative = inhibition) at 1uM
1 | Cc1nn(-c2ccc(F)cc2)c(C)c1CN1CCN(CCC(C)C)C(CCO)C1 (stereo not shown) | -0.926%
2 | O=C(NCc1cc(F)cc(C(F)(F)F)c1)C1CCC(=O)N(C2CCCC2)C1 (stereo not shown) | -3.2%
3 | CC(C)Cc1nc2sc3c(=O)n(N)cnc3c2c2c1COC(C)(C)C2 | 11.4%
4 | C/C(CC(=O)N1CCN(C=O)CC1)=N\NC(=O)c1cccc([N+](=O)[O-])c1 | 8.7%
5 | Cc1ccc(NC2=NCC(Cc3ccc(Br)cc3)S2)cc1 (stereo not shown) | 10.3%
6 | COC(=O)CNC(=O)COC(=O)C(Cc1ccccc1)NC(=O)c1ccco1 (stereo not shown) | 16.5%
7 | COc1ccc(CNC(=O)CCCC(=O)n2nc(C)c3ccccc32)cc1 | 12.7%
8 | Cc1sc(-c2ccncc2)nc1OC(=O)c1ccccc1 | 8.49%
9 | O=C(Nc1ccccc1)C(O)C(O)C(=O)Nc1ccccc1 (stereo not shown) | 16.8%
10 | CCOC(=O)c1ccc(NC(=O)c2sc3nc4n(c(=O)c3c2C)CCC4)cc1 | 9.71%
11 | O=C(Nc1ccc(S(=O)(=O)N2CCOCC2)cc1)c1ccc2c(c1)S(=O)(=O)c1ccccc1C2=O | 12.2%
12 | O=C(CSc1nnc(Cc2ccccc2)o1)Nc1cccc(F)c1 | -7.8%
13 | CC(=O)Cn1ncc(N2CCOCC2)c(Cl)c1=O | 6.03%
14 | Cc1cc(Nc2nc(Cl)c(Cl)cc2Cl)n(-c2ccccc2)n1 | 11%
15 | O=C(CN1N=C(c2ccccc2)CCC1=O)NCc1cccs1 | 16%
16 | Nc1nc(N2CCCCC2)nc(N2CCCCC2)n1 | -78.5%
17 | CCCn1c(=S)[nH]c2cc(C(=O)N3CCN(C4CCCCC4)CC3)ccc2c1=O | 13.2%
18 | CCCC(O)(CCC)C(=O)NNc1ccccc1 | 9.21%
19 | CCc1[nH]nc2c1C(c1cccc(OC(=O)N3CCOCC3)c1)C(C#N)=C(N)O2 (stereo not shown) | 16.7%
20 | CCOC(=O)[C@@H]1[C@H]2COc3ccccc3[C@H]2N2C(=O)N(c3ccc(C(F)(F)F)cc3)C(=O)[C@]12C | 13.2%

Row | Compound | hERG current change (%, negative = inhibition) at 1uM
21 | CC(=O)N1N=C(c2ccc(NS(C)(=O)=O)cc2)CC1c1ccc2nccnc2c1 (stereo not shown) | -24.2%
22 | Cc1ccc(C(=O)NC(NC(=O)c2ccc(C)cc2)C(Cl)Cl)cc1 | 15.4%
23 | COc1cccc(Nc2ncnc3sc(C)cc23)c1.Cl | 5.64%
24 | COP(=O)(OC)Oc1ccc(C(O)C(Cl)(Cl)Cl)cc1 (stereo not shown) | 16.7%
25 | COc1ccccc1NC(=O)N(Cc1ccco1)Cc1cc2cccc(C)c2[nH]c1=O | 5.98%
26 | O=C(NC(=S)Nc1ccc(N2CCOCC2)c(Cl)c1)c1cccs1 | 6.45%
27 | CCCNC(=O)c1onc(CS(=O)(=O)c2cccc(OC)c2)c1C(=O)NCCC | 15.5%
28 | CC(=O)n1cc(Nc2ccccc2C(=O)O)c2ccccc21 | 10%
29 | O=C(NCC1CCCO1)/C(=C\c1cccc([N+](=O)[O-])c1)NC(=O)c1ccccc1 (stereo not shown) | -2.73%
30 | Cc1ccc(NC(=O)CCC(=O)Nc2nnc(C3CCCCC3)s2)cc1 | 14.9%
31 | COC(=O)CCC(=O)N1CCCC(CO)(Cc2ccccc2F)C1 (stereo not shown) | 1.75%
32 | CC1CCC(NC(=O)Nc2cccs2)CC1 (stereo not shown) | 20.9%
33 | Br.COc1ccc(C2=CSC3=NCCN23)cc1Br | -31.4%
34 | CC(=O)Nc1ccc(NC(=O)/C(Cl)=C/c2ccccc2)cc1 | 11.4%
35 | COc1ccccc1C1CC(c2ccccc2)=NN1S(=O)(=O)c1ccccc1 (stereo not shown) | 6.19%
36 | Cc1cc(C)c2c(-n3cccc3)nn(CC#N)c2n1 | 12.3%
37 | O=C(OCC(=O)N1CCCC1=O)c1ccc(Cl)cc1[N+](=O)[O-] | 15.7%
38 | Cc1nc2cc(NC(=O)N3CCCCC3)ccc2n1C | 5.27%
39 | O=C(Nc1ncc2c(n1)-c1ccccc1OC2)c1ccccc1Cl | 8.99%
40 | COc1ccccc1N1CCN(C(=O)CSc2nc(C)c(C)c(=O)[nH]2)CC1 | 19.5%

Row | Compound | hERG current change (%, negative = inhibition) at 1uM
41 | Cc1ccc(NC(=O)c2cc3nc(C)cc(C)n3n2)cc1 | -1.22%
42 | COc1ccc(S(=O)(=O)N2CCCC2CNC(=O)C(=O)Nc2ccc(F)cc2)cc1 (stereo not shown) | 0.64%
43 | Cc1ccc(C(=O)NC(C)c2ccc(-n3ccnc3)cc2)o1 (stereo not shown) | -14.7%
44 | CC1(C)Cc2c(C#N)c(N)sc(=S)c2CO1 | 11%
45 | CN1C(=O)c2ccc(C(=O)NCc3ccccn3)cc2C1=O | 5.9%
46 | CC(=O)c1ccc(N2CCN(C(=O)c3nn(Cc4ccccc4)c(=O)c4ccccc34)CC2)cc1 | -72.9%
47 | COc1cc(Nc2cccc[n+]2C)cc(OC)c1OC.[I-] | 11.5%
48 | CN1CCN(C(=O)CSc2nc(-c3cccs3)cc(-c3cccs3)c2C#N)CC1 | 11.2%
49 | O=C(NCCCN1CCCC1=O)c1cncc(Br)c1 | 12.6%
50 | CCN(CC)CCCNC(=O)c1cc(Cl)c(NC(=O)C2=C(C)OCCS2)cc1OC | -1.97%
51 | O=C(N/C=C/c1ccco1)OCc1ccccc1 | 11.2%
52 | O=C(COC(=O)c1ccc(Cl)nc1)Nc1ccc2c(c1)OCCO2 | 12.8%
53 | Cn1c(SCC(=O)Nc2nccs2)nnc1-c1cccnc1 | 3.41%
54 | O=S(=O)(N/N=C/c1cccnc1)c1ccc(Cl)c(Cl)c1 | 11.1%
55 | Cc1ccnc(NC(=O)C2CCN(S(=O)(=O)c3cccc4nonc34)CC2)c1 | 8.18%
56 | COc1ccc([N+](=O)[O-])cc1NCc1ccco1 | 8.17%
57 | O=C(c1cccc(S(=O)(=O)Nc2ccccc2Cl)c1)N1CCCCCC1 | -9.23%
58 | CCOC(=O)C1=C(CC)Nc2ccccc2N=C1NC(=O)Cn1cnc2ccccc2c1=O | 7.51%
